Several values for one entry are separate records, joined by “and”; a condition that tells them apart may be missing. Identical values can stand only once.

Experiment [1] addresses T1, kDR5ECDdelHis (human).
T1 construct: DR5ECDdelHis in which the DR5 signal peptide (aa 1-57) is replaced by that of Kappa 2F8; C-terminal His tag; also called soluble recombinant extracellular domain of human DR5; human recombinant DR5
T1 chain: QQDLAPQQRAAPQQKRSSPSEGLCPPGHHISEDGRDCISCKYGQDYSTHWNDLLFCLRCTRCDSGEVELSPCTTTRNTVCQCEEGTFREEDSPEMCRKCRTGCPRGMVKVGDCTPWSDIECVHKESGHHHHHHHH
The experiment is described as follows: Bio-Layer Interferometry (Octet HTX), antibody on AHC biosensor, kDR5ECDdelHis in solution, n = 2. (BLI is a label-free optical method that tracks binding on a fibre tip over time.)

The target in experiment [2] is T2, Cyno DR5Mfdel-K420N (cynomolgus monkey DR5 with deletion of aa 185-213 and K420N), expressed on CHO-S cells (cynomolgus monkey).
T2 construct: includes the signal peptide; also called CHO-S cells expressing cynomolgus monkey DR5
T2 chain: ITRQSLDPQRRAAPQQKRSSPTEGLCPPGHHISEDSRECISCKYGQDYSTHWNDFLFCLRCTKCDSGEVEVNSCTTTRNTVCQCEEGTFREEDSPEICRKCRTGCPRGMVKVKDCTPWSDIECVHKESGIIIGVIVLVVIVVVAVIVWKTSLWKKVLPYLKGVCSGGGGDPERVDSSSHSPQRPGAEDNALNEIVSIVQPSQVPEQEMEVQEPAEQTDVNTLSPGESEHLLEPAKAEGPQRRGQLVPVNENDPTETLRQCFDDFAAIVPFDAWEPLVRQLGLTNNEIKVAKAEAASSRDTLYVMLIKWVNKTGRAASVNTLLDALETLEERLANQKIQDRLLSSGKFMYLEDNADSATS
The experiment can be described thus: flow cytometry on CHO-S cells expressing cynomolgus monkey DR5, average n = 4 (SD).

Experiment [3] addresses T3, DR5sh139-166ECDdel-FcRbHisCtag (human, with aa 139-166 replaced by the …).
T3 chain: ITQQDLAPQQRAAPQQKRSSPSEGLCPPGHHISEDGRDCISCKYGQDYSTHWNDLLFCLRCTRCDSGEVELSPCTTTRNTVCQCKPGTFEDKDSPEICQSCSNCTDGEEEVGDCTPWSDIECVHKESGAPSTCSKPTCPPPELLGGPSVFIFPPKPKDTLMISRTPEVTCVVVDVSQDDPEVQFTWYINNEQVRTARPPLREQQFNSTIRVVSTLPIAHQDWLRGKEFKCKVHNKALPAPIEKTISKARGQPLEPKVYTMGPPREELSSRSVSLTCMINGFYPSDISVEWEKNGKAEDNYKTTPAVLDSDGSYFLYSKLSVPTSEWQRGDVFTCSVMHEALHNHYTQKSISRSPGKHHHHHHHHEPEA
The experiment is described as follows: ELISA, DR5 fusion protein captured by penta-his antibody. (ELISA stands for enzyme-linked immunosorbent assay.)

The target in experiment [4] is DR5sh79-115ECDdel-FcRbHisCtag (human, with aa 79-115 replaced by the …). The experiment is described as follows: ELISA, DR5 fusion protein captured on a penta-His antibody coat, detection with HRP goat anti-human IgG F(ab')2, OD 405 nm.
The target of experiment [5] is T1, kDR5ECDdelHis. The experiment is described as follows: Bio-Layer Interferometry (Octet HTX), antibody on AHC biosensor, kDR5ECDdelHis in solution, n = 3.
In experiment [6] the target is T4, DR5ECD-FcRbHisCtag (human).
T4 construct: also called fully human DR5 antigen; extracellular domain of human DR5 natural variant P32L
The experiment is described as follows: ELISA, DR5 fusion protein captured on a penta-His antibody coat, detection with HRP goat anti-human IgG F(ab')2, OD 405 nm.

B1: IgG1-hDR5-01-G56T (antibody)
heavy: EVQLQQSGAEVVKPGASVKLSCKASGFNIKDTFIHWVKQAPGQGLEWIGRIDPANTNTKYDPKFQGKATITTDTSSNTAYMELSSLRSEDTAVYYCVRGLYTYYFDYWGQGTLVTVSSASTKGPSVFPLAPSSKSTSGGTAALGCLVKDYFPEPVTVSWNSGALTSGVHTFPAVLQSSGLYSLSSVVTVPSSSLGTQTYICNVNHKPSNTKVDKRV[skipping human IgG1 Fc]
light: EIVMTQSPATLSVSPGERATLSCRASQSISNNLHWYQQKPGQAPRLLIKFASQSITGIPARFSGSGSGTEFTLTISSLQSEDFAVYYCQQGNSWPYTFGQGTKLEIKRTVAAPSVFIFPPSDEQLKSGTASVVCLLNNFYPREAKVQWKVDNALQSGNSQESVTEQDSKDSTYSLSSTLTLSKADYEKHKVYACEVTHQGLSSPVTKSFNRGEC
notes: Humanized IgG1,kappa without the E430G mutation; also called WT counterpart of IgG1-hDR5-01-G56T-E430G
Molecule B1 came in with a Kd in experiment [1] of 12.8 nM.

B2: IgG1-hDR5-01-G56T-E430G (antibody)
heavy: EVQLQQSGAEVVKPGASVKLSCKASGFNIKDTFIHWVKQAPGQGLEWIGRIDPANTNTKYDPKFQGKATITTDTSSNTAYMELSSLRSEDTAVYYCVRGLYTYYFDYWGQGTLVTVSSASTKGPSVFPLAPSSKSTSGGTAALGCLVKDYFPEPVTVSWNSGALTSGVHTFPAVLQSSGLYSLSSVVTVPSSSLGTQTYICNVNHKPSNTKVDKRV[skipping human IgG1 Fc with E430G (EU numbers)]
light: B1 light
notes: Humanized IgG1,kappa with hexamerization-enhancing E430G (Eu numbering); also called IgG1-DR5-01-G56T-E430G; HC hDR5-01-G56T-E430G / LC hDR5-01-G56T
Consider B2, for which, in experiment [2], the EC50 was 0.27 µg/mL and 1.77 nM. In experiment [3], the binding result is “no binding (tested: range 0.46-1,000 ng/mL)”. Moreover, the concentration for a half-maximal effect (EC50 (read off the curve)) in experiment [4] and in experiment [6] was about 0.02 µg/mL in each case. In experiment [5], this molecule displayed a Kd of 10.6 nM.

As a reminder, the Kd is a measure of binding affinity in units of concentration. Usually EC50 stands for the concentration at which the effect is half-maximal. What is called EC50 (read off the curve) is the concentration that produces a half-maximal response.
